For part of these data: Not every detail of the peptide structures is certain; ends, links or a residue may be inferred. For at least one compound, name, drawing or mass did not settle the structure. Starred links: 1 amine or outer side, 2 acyl side, 3 side chain; linkers in the order of their positions; H or OH if unused. Positions of bridges follow the written chain, without caps; N, C: chain ends. Non-standard residues stand in square brackets, D forms with d. Residues, ends and D or L forms follow the SMILES beside them. ξ: configuration not given here. *: point of attachment. X1 = COC1O[C@H](C(=O)[*:2])[C@@H](O)[C@H](O)[C@H]1N[*:1]; X8 = CN(C)C(=N[C@@H](Cc1ccccc1)C(=O)*)N(C)C; Phe(4-F) = N[C@@H](Cc1ccc(F)cc1)C(=O)O; Bta = N[C@@H](Cc1csc2ccccc12)C(=O)O; Hyp = O=C(O)[C@@H]1C[C@@H](O)CN1; d(hLeu) = CC(C)CC[C@@H](N)C(=O)O; αMeF = C[C@](N)(Cc1ccccc1)C(=O)O; Cha = N[C@@H](CC1CCCCC1)C(=O)O; dCha = N[C@H](CC1CCCCC1)C(=O)O; ξPhe(ol) = NC(CO)Cc1ccccc1; Nle = CCCC[C@H](N)C(=O)O; Orn = NCCC[C@H](N)C(=O)O; Aze = O=C(O)[C@@H]1CCN1; X19 = COCC(Cc1ccccc1)N*
Legend:
[1] = molecular target: T1, human C5aR(CD88) (Homo sapiens, UniProt P21730); assay: Determination of the IC50 value in an enzyme release assay (functional assay, antagonistic activity); format: cell-based; settings: IC50 group in enzyme release assay, RBL cells expressing human C5aR(CD88)
T1 construct: expressed in transfected cells; host or cells: rat basophilic leukemia cells (RBL)
T1 sequence (P21730 1-350): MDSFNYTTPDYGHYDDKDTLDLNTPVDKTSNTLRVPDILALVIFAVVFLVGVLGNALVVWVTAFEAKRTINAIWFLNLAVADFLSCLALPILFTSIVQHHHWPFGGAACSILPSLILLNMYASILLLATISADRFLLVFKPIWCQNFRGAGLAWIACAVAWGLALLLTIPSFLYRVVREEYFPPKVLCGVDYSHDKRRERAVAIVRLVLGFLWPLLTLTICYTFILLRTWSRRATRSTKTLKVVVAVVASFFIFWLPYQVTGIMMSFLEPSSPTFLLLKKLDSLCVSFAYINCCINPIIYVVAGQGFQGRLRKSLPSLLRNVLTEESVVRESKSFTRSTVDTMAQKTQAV

[2] = molecular target: T1, human C5aR(CD88); assay: Determination of EC50-values in an enzyme release assay (agonistic activity); format: cell-based; settings: no C5a added
Protocol: The assay procedure was described by Kohl (Kohl 1997 The Anaphylatoxins. In: Dodds, A. W., Sim, R. B. (Eds.), Complement: A Practical Approach. Oxford, pp. 135-163). Basophilic leukemia cells from rats (RBL), which express the human C5aR(CD88), were cultivated in DMEM with 10% fetal bovine serum, 100 U/ml penicillin, 100 μg/ml streptomycin and 2 mM glutamine (all components of the media from Biochrome, Berlin) to confluence at 37° C. and 10% CO2. The following specifications refer to single cell culture flask having a surface of 75 cm^2. Medium was decanted from cells. Cells were washed with 10 ml PBS (Dulbecco's PBS, Biochrome) and subsequently overlayed with 3 ml Cell Dissociation Solution (CDS, Sigma). Cells were incubated for 1 min at room temperature. Subsequently, CDS was removed and the cells were further incubated for 10-15 min at 37° C. for dissociation. In the assay, 20 μl of the solution containing the compound to be tested were used. This solution should not contain more than 2.8% DMSO. For the dilution process, the compounds were diluted in ⅓ or ½ steps. […] Cells were counted and centrifuged (200×g, 10 min). […] The mtp was transferred into a reader and the absorption at 405 nm was measured. […]

[3] = molecular target: T2, C5aR (Homo sapiens, UniProt P21730); settings: compound numbers of WO 03/033528; read-out: IC50 as a measure for affinity, WO 03/033528; cited from earlier work
T2 construct: measurements with isolated membranes from polymorphonuclear neutrophilic granulocytes (PMN membranes); host or cells: isolated PMN membranes (endogenous receptor)
T2 sequence (P21730 1-350): T1 sequence (P21730 1-350)

Structure (SMILES) | IC50 [1] [nM] | EC50 [2] [nM] | IC50 [3] [nM]
CCCC[C@@H]1NC(=O)[C@H](Cc2ccc(F)cc2)NC(=O)[C@@H](CCC(C)C)NC(=O)[C@@H]2CCN2C(=O)[C@@H](NC(=O)[C@@](C)(N)Cc2ccccc2)CCCNC1=O [Compound 341, H-Amf-[Orn-Aze-hle-Pff-Nle]] (H-[αMeF][Orn][Aze][d(hLeu)][Phe(4-F)][Nle]; lactam 2-C) | 50 to 200 |  | 
COCC(Cc1ccccc1)NC(=O)[C@H](Cc1csc2ccccc12)NC(=O)[C@@H](CC1CCCCC1)NC(=O)[C@@H]1CCCN1C(=O)[C@H](CCCN)NC(=O)[C@H](Cc1ccccc1)NC(C)=O (stereo partly drawn) [Compound 253, Ac-Phe-Orn-Pro-cha-Bta-L19] (Ac-F[Orn]P[dCha][Bta]-X19) | 50 to 200 |  | 
CC(=O)N[C@@H](Cc1ccccc1)C(=O)N[C@@H](CCCN)C(=O)N1CCC[C@H]1C(=O)N[C@H](CC1CCCCC1)C(=O)N[C@@H](Cc1csc2ccccc12)C(=O)N[C@@H](CC1CCCCC1)C(N)=O [Compound 54, Ac-Phe-Orn-Pro-cha-Bta-Cha-NH2] (Ac-F[Orn]P[dCha][Bta][Cha]-NH2) | 50 to 200 |  | 
CCCC[C@@H]1NC(=O)[C@H](Cc2c[nH]c3ccccc23)NC(=O)[C@@H](CC2CCCCC2)NC(=O)[C@@H]2CCCN2C(=O)[C@@H](NC(=O)[C@H](Cc2ccccc2)NC(=O)[C@H](CCCCN)NC(C)=O)CCCNC1=O [Compound 43, Ac-Lys-Phe-[Orn-Pro-cha-Trp-Nle]] (Ac-KF[Orn]P[dCha]W[Nle]; lactam 3-C) | 20 to 50 | > 1430 | 
CCCC[C@@H]1NC(=O)[C@H](Cc2c[nH]c3ccccc23)NC(=O)[C@@H](CC2CCCCC2)NC(=O)[C@H](CO)NC(=O)[C@@H](NC(=O)[C@@H](N)Cc2ccccc2)CCCNC1=O [Compound 44, H-Phe-[Orn-Ser-cha-Trp-Nle]] (H-F[Orn]S[dCha]W[Nle]; lactam 2-C) |  | > 1430 | 1360
CN(C)C(=N[C@@H](Cc1ccccc1)C(=O)N[C@H]1CCCNC(=O)[C@H](Cc2ccccc2)NC(=O)[C@H](Cc2c[nH]c3ccccc23)NC(=O)[C@@H](CC2CCCCC2)NC(=O)[C@@H]2C[C@@H](O)CN2C1=O)N(C)C [Compound 393, Tmg-Phe-[Orn-Hyp-cha-Trp-Phe]] (X8-[Orn][Hyp][dCha]WF; lactam 1-C) | 50 to 200 |  | 
CC(=O)NCCC[C@H](NC(=O)[C@H](Cc1ccccc1)NC(C)=O)C(=O)N1CC[C@H]1C(=O)N[C@H](CC1CCCCC1)C(=O)N[C@@H](Cc1csc2ccccc12)C(=O)N[C@@H](Cc1ccccc1)C(N)=O [Compound 101, Ac-Phe-Orn(Ac)-Aze-cha-Bta-Phe-NH2] (Ac-F[Orn](Ac)[Aze][dCha][Bta]F-NH2) | 20 to 50 |  | 
CCCC[C@@H]1NC(=O)[C@H](Cc2c[nH]c3ccccc23)NC(=O)[C@@H](CC2CCCCC2)NC(=O)[C@@H]2CCCN2C(=O)[C@@H](NC(=O)[C@H](Cc2ccccc2)NC(=O)[C@H]2OC(OC)[C@H](NC(C)=O)[C@@H](O)[C@@H]2O)CCCNC1=O (stereo partly drawn) [Compound 4, X-Phe-[Orn-Pro-cha-Trp-Nle]; X = 2-acetamido-1-methyl-glucuronyl] (Ac-[X1]F[Orn]P[dCha]W[Nle]; lactam 3-C) | 20 to 50 |  | 
CC(=O)N[C@@H](Cc1ccccc1)C(=O)N[C@H]1CCCNC(=O)[C@H](CCCNC(=N)N(C)C)NC(=O)[C@H](Cc2c[nH]c3ccccc23)NC(=O)[C@@H](CC2CCCCC2)NC(=O)[C@@H]2CCCN2C1=O [compound 24] | 50 to 200 |  | 
CC(=O)N[C@@H](Cc1ccccc1)C(=O)N[C@@H](CCCN)C(=O)N1CCC[C@H]1C(=O)N[C@H](CC1CCCCC1)C(=O)N[C@@H](Cc1csc2ccccc12)C(=O)NC(CO)Cc1ccccc1 (stereo partly drawn) [Compound 256, Ac-Phe-Orn-Pro-cha-Bta-NH—CH(CH2OH)—CH2-Ph] (Ac-F[Orn]P[dCha][Bta][ξPhe(ol)]) | 50 to 200 |  | 

From patent publication US20080161232A1, “C5a Receptor Antagonist” (JERINI AG, priority 2005, published 2008)
